Assay results published in the supplement of paper PMC8728848.
The other results are listed elsewhere or left out.

Tests used:
Assay in all cases: glycan array binding signal (z-score within array); higher = stronger binding
Settings in all cases: glycan notation: IUPAC condensed, linker removed
[1] = target: Man(a1-3)[Man(a1-6)]Man(a1-6)[Man(a1-2)Man(a1-3)]Man(b1-4)GlcNAc(b1-4)GlcNAc
Procedure, shortened: (§1)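 Arrays were curated from the Consortium for Functional Glycomics database, 3228 in total, and kept only where the protein sequence was available. Binding is expressed as a within-array Z-score. This score was averaged across arrays of the same protein sequence at different concentrations or buffers and across linkers, and negative values can be read as non-binding.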

[2] = target: Man(a1-3)[Man(a1-6)]Man(a1-6)[Man(a1-3)]Man
Procedure, shortened: as §1

[3] = target: Man(a1-3)[Man(a1-6)]Man(a1-6)[Man(a1-3)]Man(b1-4)GlcNAc(b1-4)GlcNAc
Procedure, shortened: as §1

[4] = target: Man(a1-3)[Man(a1-6)]Man(b1-4)GlcNAc(b1-4)GlcNAc
Procedure, shortened: as §1

[5] = target: Man(a1-6)Man
Procedure, shortened: as §1

[6] = target: Man(b1-4)GlcNAc
Procedure, shortened: as §1

[7] = target: Neu5Ac(a2-3)Gal
Procedure, shortened: as §1

[8] = target: Neu5Ac(a2-3)Gal(b1-3)GalNAc
Procedure, shortened: as §1

[9] = target: Neu5Ac(a2-3)Gal(b1-3)GalNAc(b1-3)Gal(a1-4)Gal(b1-4)Glc
Procedure, shortened: as §1

[10] = target: Neu5Ac(a2-3)Gal(b1-3)GalNAc(b1-3)Gal(b1-4)GlcNAc
Procedure, shortened: as §1

[11] = target: Neu5Ac(a2-3)Gal(b1-3)GalNAc(b1-4)[Neu5Ac(a2-3)]Gal(b1-4)Glc
Procedure, shortened: as §1

[12] = target: Neu5Ac(a2-3)Gal(b1-3)GalNAc6S
Procedure, shortened: as §1

[13] = target: Neu5Ac(a2-3)Gal(b1-3)GlcNAc
Procedure, shortened: as §1

[14] = target: Neu5Ac(a2-3)Gal(b1-3)GlcNAc(b1-3)Gal(b1-3)GlcNAc
Procedure, shortened: as §1

[15] = target: Neu5Ac(a2-3)Gal(b1-3)GlcNAc6S
Procedure, shortened: as §1

[16] = target: Neu5Ac(a2-3)Gal(b1-3)[Fuc(a1-4)]GlcNAc
Procedure, shortened: as §1

[17] = target: Neu5Ac(a2-3)Gal(b1-3)[Fuc(a1-4)]GlcNAc(b1-3)Gal(b1-4)[Fuc(a1-3)]GlcNAc
Procedure, shortened: as §1

[18] = target: Neu5Ac(a2-3)Gal(b1-3)[Neu5Ac(a2-3)Gal(b1-4)]GlcNAc
Procedure, shortened: as §1

[19] = target: Neu5Ac(a2-3)Gal(b1-3)[Neu5Ac(a2-6)]GalNAc
Procedure, shortened: as §1

[20] = target: Neu5Ac(a2-3)Gal(b1-4)Glc
Procedure, shortened: as §1

[21] = target: Neu5Ac(a2-3)Gal(b1-4)GlcNAc
Procedure, shortened: as §1

[22] = target: Neu5Ac(a2-3)Gal(b1-4)GlcNAc(b1-2)Man(a1-3)[GlcNAc(b1-2)Man(b1-4)GlcNAc(b1-2)Man(a1-6)]Man(b1-4)GlcNAc(b1-4)GlcNAc
Procedure, shortened: as §1

[23] = target: Neu5Ac(a2-3)Gal(b1-4)GlcNAc(b1-2)Man(a1-3)[Neu5Ac(a2-6)Gal(b1-4)GlcNAc(b1-2)Man(a1-6)]Man(b1-4)GlcNAc(b1-4)GlcNAc
Procedure, shortened: as §1

[24] = target: Neu5Ac(a2-3)Gal(b1-4)GlcNAc(b1-3)Gal(b1-3)GlcNAc
Procedure, shortened: as §1

[25] = target: Neu5Ac(a2-3)Gal(b1-4)GlcNAc(b1-3)Gal(b1-4)GlcNAc
Procedure, shortened: as §1

[26] = target: Neu5Ac(a2-3)Gal(b1-4)GlcNAc(b1-3)Gal(b1-4)GlcNAc(b1-3)Gal(b1-4)GlcNAc
Procedure, shortened: as §1

[27] = target: Neu5Ac(a2-3)Gal(b1-4)GlcNAc(b1-3)Gal(b1-4)[Fuc(a1-3)]GlcNAc
Procedure, shortened: as §1

[28] = target: Neu5Ac(a2-3)Gal(b1-4)GlcNAc(b1-6)[Gal(b1-3)]GalNAc
Procedure, shortened: as §1

[29] = target: Neu5Ac(a2-3)Gal(b1-4)GlcNAc(b1-6)[Neu5Ac(a2-3)Gal(b1-3)]GalNAc
Procedure, shortened: as §1

[30] = target: Neu5Ac(a2-3)Gal(b1-4)GlcNAc6S
Procedure, shortened: as §1

[31] = target: Neu5Ac(a2-3)Gal(b1-4)[Fuc(a1-3)]GlcNAc
Procedure, shortened: as §1

[32] = target: Neu5Ac(a2-3)Gal(b1-4)[Fuc(a1-3)]GlcNAc(b1-3)Gal
Procedure, shortened: as §1

[33] = target: Neu5Ac(a2-3)Gal(b1-4)[Fuc(a1-3)]GlcNAc(b1-3)Gal(b1-4)GlcNAc
Procedure, shortened: as §1

[34] = target: Neu5Ac(a2-3)Gal(b1-4)[Fuc(a1-3)]GlcNAc(b1-3)Gal(b1-4)[Fuc(a1-3)]GlcNAc(b1-3)Gal(b1-4)[Fuc(a1-3)]GlcNAc
Procedure, shortened: as §1

[35] = target: Neu5Ac(a2-3)Gal(b1-4)[Fuc(a1-3)]GlcNAc(b1-6)[Gal(b1-3)]GalNAc
Procedure, shortened: as §1

[36] = target: Neu5Ac(a2-3)Gal(b1-4)[Fuc(a1-3)]GlcNAc6S
Procedure, shortened: as §1

[37] = target: Neu5Ac(a2-3)Gal6S(b1-4)GlcNAc
Procedure, shortened: as §1

B1: Langerin CRD (Homo sapiens), Q9UJ71 (protein)
chain: QVVSQGWKYFKGNFYYFSLIPKTWYSAEQFCVSRNSHLTSVTSESEQEFLYKTAGGLIYWIGLTKAGMEGDWSWVDDTPFNKVQSVRFWIPGEPNNAGNNEHCGNIKAPSLQAWNDAPCDKTFLFICKRPYVPSEPSAWSHPQFEK
glycan array binding signal (z-score) [1]: 0.569
glycan array binding signal (z-score) [2]: 1.07
glycan array binding signal (z-score) [3]: -0.241
glycan array binding signal (z-score) [4]: 0.392
glycan array binding signal (z-score) [5]: 1.03
glycan array binding signal (z-score) [6]: 0.232
glycan array binding signal (z-score) [7]: -0.625
glycan array binding signal (z-score) [8]: -0.547
glycan array binding signal (z-score) [9]: -0.588
glycan array binding signal (z-score) [10]: -0.611
glycan array binding signal (z-score) [11]: -0.648
glycan array binding signal (z-score) [12]: -0.654
glycan array binding signal (z-score) [13]: -0.432
glycan array binding signal (z-score) [14]: -0.48
glycan array binding signal (z-score) [15]: -0.591
glycan array binding signal (z-score) [16]: 0.059
glycan array binding signal (z-score) [17]: -0.399
glycan array binding signal (z-score) [18]: -0.595
glycan array binding signal (z-score) [19]: -0.633
glycan array binding signal (z-score) [20]: -0.401
glycan array binding signal (z-score) [21]: -0.606
glycan array binding signal (z-score) [22]: -0.558
glycan array binding signal (z-score) [23]: -0.647
glycan array binding signal (z-score) [24]: -0.628
glycan array binding signal (z-score) [25]: -0.418
glycan array binding signal (z-score) [26]: -0.654
glycan array binding signal (z-score) [27]: -0.68
glycan array binding signal (z-score) [28]: -0.693
glycan array binding signal (z-score) [29]: -0.598
glycan array binding signal (z-score) [30]: -0.429
glycan array binding signal (z-score) [31]: -0.583
glycan array binding signal (z-score) [32]: -0.389
glycan array binding signal (z-score) [33]: -0.537
glycan array binding signal (z-score) [34]: -0.339
glycan array binding signal (z-score) [35]: -0.665
glycan array binding signal (z-score) [36]: -0.222
glycan array binding signal (z-score) [37]: 0.146
